Laboratory results from paper PMC12136788.
This is one part of the list.

T1: UNK ZnF1-6 (called full-length) (human, UniProt Q9C0B0 30-357)
T1 sequence: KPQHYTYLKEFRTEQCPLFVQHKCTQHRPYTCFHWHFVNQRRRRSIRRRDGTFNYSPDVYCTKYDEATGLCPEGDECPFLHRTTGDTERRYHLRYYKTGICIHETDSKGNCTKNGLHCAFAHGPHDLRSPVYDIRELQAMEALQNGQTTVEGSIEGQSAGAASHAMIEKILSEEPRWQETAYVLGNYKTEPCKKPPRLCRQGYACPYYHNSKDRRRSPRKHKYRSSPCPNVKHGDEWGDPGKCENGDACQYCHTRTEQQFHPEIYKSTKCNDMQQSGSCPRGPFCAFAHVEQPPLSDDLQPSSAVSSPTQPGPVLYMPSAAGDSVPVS

B1: chr5:10264816:10264917:+|3pUTR|ENSG00000150753|msi1_unk|total|mutant (ssRNA)
RNA: GGGAGUUCUACAGUCCGACGAUCAAUGGAUGUCUCGUGAUGCAUCUACAGUUAUUUAUUGUUACAUCCUUUUCCAGACACUGCCGAUGCUAUAAUAAAAACCGCUGUUUGGUAACCACCGUUUCACUUGUUCAAAGCUGUGUACAACAGAGGAUUGAGCAUCA
B2: ENSG00000070961:be:win_1001|CDS|ENSG00000070961|bound_else_gene|NA|bound_elsewhere_windowed (ssRNA)
RNA: GGGAGUUCUACAGUCCGACGAUCAGCCAUUGAAGAGUGAAGAAGGUGGAGAUGGUGAUGAAAAAGAUAAAAAGAAAGCAAAUUUGCCAAAAAAGGAAAAAUCUGUUUUACAAGGGAAACUUACAAAACUGGCUGUUCAGAUUGCAACAGAGGAUUGAGCAUCA
B3: ENSG00000137504:stop:overlap|stop_codon|ENSG00000137504|stop_codon|NA|stop_codon (ssRNA)
RNA: GGGAGUUCUACAGUCCGACGAUCAGGUGUCGGUGGAGUUCUGCUCGGCGUGCGCCCGGAAGGCGUCGUCUUCUCUUAAAAUGUAGGGUCAAGUAAUCUGCUCUUUAUCCGCGUUUACCCCUUUCAACUCCCUUACACCAUGUCCAACAGAGGAUUGAGCAUCA
B4: chr20:56404979:56405080:+|3pUTR|ENSG00000101138|unk|total|mutant (ssRNA)
RNA: GGGAGUUCUACAGUCCGACGAUCCCGCGCCCAGCCUUCCUGAAGCUUUUCCGAACAUGACAGUACUUCUCUGGAUUCAGCACCCGCAGAGUCAGAGAACUCUGAACUCCCCUUGUACAAACAUAAACUUUGCUUUAUAUUUAUCAACAGAGGAUUGAGCAUCA
B5: chr10:62092816:62092917:+|CDS|ENSG00000150347|msi1|FALSE|unique (ssRNA)
RNA: GGGAGUUCUACAGUCCGACGAUCUUUUACAUCACCGACAAAUUCUCAGCAGCUGUACAGACACUUGGCUGCGGCUACACCUGUAGGAAGUUCAUAUGGGGACCUUUUGCAUAACAGCAUUUACCCUUUAGCUGCUAUAAAUCCCAACAGAGGAUUGAGCAUCA
B6: chr3:157259741:157261133:-|three_prime_utr|ENSG00000197415|control|control|control (ssRNA)
RNA: GGGAGUUCUACAGUCCGACGAUCACUAAAUACCAAUGGAAUUGUUGUCCUUUAAGAAGAAGGGCCUAAAAUGGCAGGAUUCUUAGUAAAUGUCAUACUCUAACAGCUUUAGUAUUGACUUCAGAAUAUAUCUGAUGCCCACAACAACAGAGGAUUGAGCAUCA

Each binder was assayed against T1, UNK ZnF1-6 (called full-length) (assay: nsRBNS (natural sequence RNA bind-n-seq); RBNS binding buffer (assumed for nsRBNS): 25 mM Tris pH 7.5, 150 mM KCl, 3 mM MgCl2, 0.01% Triton X-100, 500 ug/ml BSA, 20 U/ml SUPERase-In, 4 C; UNK is unkempt and MSI1 is Musashi-1; names of the RNAs are library labels; protein concentration not given here; high values mean tight binding).
Work on B1 yielded a binding signal of 0.394 enrichment R.
With B2 the binding signal was 0.569 enrichment R.
B3 was tested, and the binding signal was 0.67 enrichment R.
B4 gave a binding signal of 0.644 enrichment R.
Binder B5 has a binding signal of 0.658 enrichment R.
With B6 the binding signal was 0.511 enrichment R.
